The text below walks through data of paper PMC4336329 (PLoS ONE, 2015).

About 2,200 (0.71%) of roughly 310,000 compounds showed an effect of 50% or more. Effects have a minus sign here. Some of the results follow.

In the experiment the target is human ether-à-go-go-related gene (hERG) potassium channel (human, UniProt Q12809). The experiment is described as follows: primary screen, population patch clamp on CHO cells stably expressing hERG.
human ether-à-go-go-related gene (hERG) potassium channel, sequence (Q12809 whole entry, looked up): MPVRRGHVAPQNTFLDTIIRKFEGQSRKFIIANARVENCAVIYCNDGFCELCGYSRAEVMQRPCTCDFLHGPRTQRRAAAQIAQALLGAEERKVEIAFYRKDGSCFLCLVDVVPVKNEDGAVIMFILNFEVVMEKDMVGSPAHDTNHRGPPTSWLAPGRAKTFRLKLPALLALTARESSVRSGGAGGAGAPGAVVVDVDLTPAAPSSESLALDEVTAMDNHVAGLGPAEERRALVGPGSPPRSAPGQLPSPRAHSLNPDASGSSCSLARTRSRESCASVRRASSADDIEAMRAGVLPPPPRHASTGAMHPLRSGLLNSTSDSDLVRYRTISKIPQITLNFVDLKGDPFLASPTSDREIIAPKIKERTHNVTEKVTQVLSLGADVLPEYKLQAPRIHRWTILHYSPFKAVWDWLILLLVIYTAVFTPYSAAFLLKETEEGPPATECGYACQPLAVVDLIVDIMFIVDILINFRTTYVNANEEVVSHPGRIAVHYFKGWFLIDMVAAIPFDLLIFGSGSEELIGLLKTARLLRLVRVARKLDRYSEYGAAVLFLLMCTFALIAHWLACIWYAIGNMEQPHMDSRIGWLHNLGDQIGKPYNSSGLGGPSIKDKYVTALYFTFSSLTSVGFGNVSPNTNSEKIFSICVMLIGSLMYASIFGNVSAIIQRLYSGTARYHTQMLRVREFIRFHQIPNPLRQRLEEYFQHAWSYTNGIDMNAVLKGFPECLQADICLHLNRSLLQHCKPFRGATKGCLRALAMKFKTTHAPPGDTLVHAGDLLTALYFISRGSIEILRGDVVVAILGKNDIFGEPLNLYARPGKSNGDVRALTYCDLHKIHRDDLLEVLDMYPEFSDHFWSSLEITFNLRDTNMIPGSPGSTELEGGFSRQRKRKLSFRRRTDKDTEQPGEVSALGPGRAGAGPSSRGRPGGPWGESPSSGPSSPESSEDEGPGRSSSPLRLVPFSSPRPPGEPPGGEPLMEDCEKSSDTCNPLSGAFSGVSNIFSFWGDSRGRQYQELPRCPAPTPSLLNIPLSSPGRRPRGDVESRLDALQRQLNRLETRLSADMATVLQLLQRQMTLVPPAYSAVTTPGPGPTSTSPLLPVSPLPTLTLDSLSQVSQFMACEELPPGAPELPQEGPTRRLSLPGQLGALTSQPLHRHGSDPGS
`O=C(O)CC[N+](=O)[O-]`: the “hERG current change (%, negative = inhibition) at 1uM” value was 15.1%.
`O=C(C[n+]1ccc(/C=N/O)cc1)NCc1ccccc1.[Cl-]`: the “hERG current change (%, negative = inhibition) at 1uM” value amounted to 8.7%.
For the compound `COc1ccc(N2C(=O)c3ccccc3NC2c2cccnc2)cc1` (stereo not shown), the “hERG current change (%, negative = inhibition) at 1uM” value was 17.5%.
The figure for `CC1Cc2nc(SCC(=O)NCC3CCCO3)n(Cc3ccccc3)c(=O)c2S1` (stereo not shown) is -4.07%.
The figure for `CC(=O)c1ccc(S(=O)(=O)NC2CCCCCCC2)cc1` is 12.4%; for `OC(CN1CCN(c2ccccc2)CC1)c1c[nH]c2ccccc12` (stereo not shown) it is -13.8%.
As for `O=S(=O)(NCC1CCCO1)c1cccc(S(=O)(=O)N2CCCC2)c1` (stereo not shown), the “hERG current change (%, negative = inhibition) at 1uM” value is -1.28%.
Regarding `CCC1(c2ccc(F)cc2)NC(=O)N(CC(=O)N2CCN(S(=O)(=O)c3ccc(Cl)cc3)CC2)C1=O` (stereo not shown), the “hERG current change (%, negative = inhibition) at 1uM” value amounted to 10%.
As for `COc1ccc(-c2cccc(NS(=O)(=O)c3ccccc3[N+](=O)[O-])c2)nn1`, the figure is 14.2%.
For `Cn1ccnc1C1CCCCN1Cc1nc(Cc2ccccc2F)no1` (stereo not shown), the “hERG current change (%, negative = inhibition) at 1uM” value worked out at 2.45%.
The figure for `COC(=O)c1ccccc1OCc1cccc(C)n1` is 7.79%.
Take `CCCCCC(=O)Nc1ncc2c(n1)CC(c1cccs1)CC2=O` (stereo not shown): the “hERG current change (%, negative = inhibition) at 1uM” value is given as -9.38%.
Turning to `CCN(CC)Cc1c(O)ccc2c(=O)c(-c3ccccc3)coc12.Cl`, the “hERG current change (%, negative = inhibition) at 1uM” value is reported as 11.8%.
The figure for `N#CCCN1CCCc2cc(N=Nc3ccc(C(F)(F)F)cc3)ccc21` is 14.6%; for `O=[N+]([O-])c1ccc(Oc2cccc3cccnc23)c(Cl)c1` it is 10.5%.
With `Cc1cccc(NC(=O)CN2C(=O)S/C(=C\C(=O)Nc3ccc(Cl)cc3)C2=O)c1`, the “hERG current change (%, negative = inhibition) at 1uM” value amounted to 5.18%.
The figure for `Cc1cc(C)n(Cc2cnc(N3CCOCC3)s2)n1` is 10.9%; for `Cc1nn(C(=O)C2CC2)c(C)c1Sc1ccc(Cl)cc1` it is 16.5%.
Take `O=c1cc(Nc2ccc3c(c2)OCCO3)[nH]c(=O)n1C1CCCCC1`: the “hERG current change (%, negative = inhibition) at 1uM” value came out at 7.69%.
The figure for `Cc1ccc(S(=O)(=O)NC(=O)c2cc(C)n(CCCn3ccnc3)c2C)cc1` is 4.9%; for `O=C(COc1ccc(S(=O)(=O)NC2CCCC2)cc1)N1CCCCC1` it is 18.2%; for `FC(F)(F)c1nnc2c(Sc3ccccn3)nc3ccccc3n12` it is 6.66%.
Turning to `NC(=O)COC(=O)c1cc(-c2ccco2)nc2ccccc12`, the “hERG current change (%, negative = inhibition) at 1uM” value came out at 8.34%.
The figure for `CCc1cccc(CC)c1N(COC)C(=O)Cn1c(CO)nc2ccccc21` is 8.47%; for `COc1ccc(/C=N/NC(=O)c2ccccc2O)cc1Cn1cc([N+](=O)[O-])cn1` it is 12.9%.
